Several values for one entry are separate records, joined by “and”; a condition that tells them apart may be missing. Identical values can stand only once. Screen size: about 420,000 compounds; about 64,000 (15%) were called active. This list was built around the results that the source calls inconclusive (neither active nor inactive); the mix of calls is not that of the screen. The call rests on the fitted dose curve; in most records, active means well fitted inhibition curve with a large enough effect; inconclusive means small, poorly fitted or top-dose-only effect; inactive means flat fitted curve, though single readings scatter. Potencies beside an inconclusive call are fits to weak or partial responses and may not hold up.
Assay: qHTS for Inhibitors of human tyrosyl-DNA phosphodiesterase 1 (TDP1): qHTS in cells in absence of CPT; further: nearly all actives have a fitted effect of over 55% in size
Conditions: DT40 Tdp1-/- hTDP1 cells, no CPT, ATP luminescence, 48 h; activity change, negative = growth inhibition: at 46.2 µM (top of the series) unless noted
Procedure, shortened: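 Luminescent ATP content (CellTiter-Glo) served as the growth readout. Knockout chicken DT40 cells expressing human TDP1 were exposed to compounds without camptothecin for a minimum 48 hr at 37 °C.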
On the % scale 0 is the no-effect control and ±100 the full control effect; potency means the concentration at half of the fitted maximal effect; tags describe the fitted curve by direction and shape.

Structure (SMILES) | Potency | activity change, negative = growth inhibition
N#CCc1nn(Cc2ccc(F)cc2)c(=O)c2ccccc12 | inactive | 
c1ccc(C2CNCc3c2ccc2ccccc32)cc1 (stereo unspecified) | active: 16.4 µM | 
COc1ccccc1-n1c(=O)[nH]c2c(C(N)=O)nc(-c3cccnc3)nc21 | active: 20.6 µM | 
C=CCN(c1ccccc1)S(=O)(=O)c1cc2c(cc1C)N(C)CCO2 | inconclusive: 29.1 µM [inhibitor, single point] | 
CCOC(=O)Cc1csc(NC(=O)c2c(O)c3c(n(CC(C)C)c2=O)CCCC3)n1 | inconclusive: 23.1 µM [inhibitor, single point] | 
Cc1ccc(S(=O)(=O)N2CCCCC2)cc1NC(=O)COC(=O)c1ccc(O)cc1 | inconclusive: 16.4 µM [inhibitor, single point] | 
CC(C)(C)c1ccc(N2C(=O)CSC2c2cccnc2)cc1 (stereo unspecified) | active: 8.2 µM | 
Cc1ccc(NS(=O)(=O)c2ccc(C(=O)N3CCC3)cc2)cc1 | inconclusive: 13 µM [inhibitor, partial curve] | 
CC1CCCCN1C(=O)COC(=O)C1CCN(S(=O)(=O)c2ccc(Cl)c(C(F)(F)F)c2)CC1 (stereo unspecified) | inactive | 
O=C(COC(=O)/C=C/c1cccs1)Nc1ccc2ccccc2c1 | inactive | 
COc1ccccc1-n1c(SCC(=O)N(C)C)nnc1-c1ccco1 | inconclusive: 29.1 µM [inhibitor, partial curve] | 
O=C(c1cccc(Cl)c1)N1CCN(Cc2ccccc2F)CC1 | inconclusive: 35.5 µM [inhibitor, single point] | 
CC(C)c1ccc(NC(=O)c2ccc(F)c(S(=O)(=O)N3CCCCCC3)c2)cc1 | inconclusive: 3.26 µM [inhibitor, partial curve] | 
COc1ccc(C(=O)Nc2ccccc2C(=O)N/N=C/c2ccccn2)cc1OC | active: 6.51 µM | 
CCCN(CCC)S(=O)(=O)c1ccc(C(=O)OCCN2C(=O)c3cccc4c(N5CCOCC5)ccc(c34)C2=O)cc1 | inconclusive: 11.6 µM [inhibitor, partial curve] | 
CC(C)Sc1cc(N2CCOCC2)nc(-c2ccc(Cl)cc2)n1 | inconclusive: 32.6 µM [inhibitor, single point] | 
O=C(NC1CC1)C1CCN(S(=O)(=O)c2ccc(Cl)cc2)CC1 | inconclusive: 23.1 µM [inhibitor, single point] | 
CSc1ccc(/C=N/NC(=O)CN2CCN(Cc3ccc(C)cc3)CC2)cc1 | inconclusive: 1.46 µM [inhibitor, partial curve] | 
O=C(CC1C(=O)NCCN1Cc1ccc(-c2ccccc2)cc1)NCc1ccccc1 (stereo unspecified) | inconclusive: 29.1 µM [inhibitor, single point] | 
CC(C)=CCCC(C)CCO (stereo unspecified) | inconclusive: 32.6 µM [inhibitor, single point] | 
O=C(NCC1CCCO1)c1ccc(NC(=O)c2cc(F)c(F)cc2Cl)cc1 (stereo unspecified) | inactive | 
O=C(Nc1cccc(Cl)c1)NC1CCN(C2CCCCC2)C1 (stereo unspecified) | inconclusive: 25.9 µM [inhibitor, single point] | 
CC(=O)Nc1ccc(SCC(=O)c2c(N)n(Cc3ccccc3)c(=O)n(C)c2=O)cc1 | active: 8.2 µM | 
O=C(COC(=O)c1ccccc1OCCOc1ccccc1)Nc1cccc(Br)c1 | inactive | 

Structure (SMILES) | Potency | activity change, negative = growth inhibition
COc1ccc(S(=O)(=O)NCCc2csc3nc(-c4ccc(OC)c(OC)c4)nn23)cc1C | active: 16.4 µM | 
COc1cc(/C=C/C(=O)c2ccccc2O)cc(OC)c1OC | inconclusive: 25.9 µM [inhibitor, single point] | 
COc1ccc(C=NNC(=S)NN=Cc2ccc(OC)c(OC)c2)cc1OC | active: 11.6 µM | 
Cc1ccc(-c2csc(N3C(=N)SCC3=O)n2)cc1 | inconclusive: 29.1 µM [inhibitor, single point] | 
Cc1ccc(CNC(=O)c2cn(C)c(=O)c3c2c2ccccc2n3C)o1 | inconclusive: 23.1 µM [inhibitor, partial curve] | 
C=C(C)CC1Nc2ccccc2NC1CC(=C)C (stereo unspecified) | inactive | 
CCCn1nc(Oc2nc(SC)nc(N(C)C)n2)ccc1=O | inconclusive: 18.4 µM [inhibitor, single point] | 
COCC(=O)N1CCC(Oc2ccc(C(=O)NCCCn3cccn3)cc2)CC1 | inconclusive: 6.51 µM [inhibitor, single point] | 
O=C1[C@H]2[C@@H](c3ccccc3)N[C@]3(CCCN(Cc4ccc(F)cc4)C3=O)[C@H]2C(=O)N1Cc1ccccc1 | active: 16.4 µM | 
OC[C@@H]1CN(Cc2ccc(-c3ccccc3)cc2)C[C@H](n2cnc3c(NC4CCCC4)ncnc32)O1 | active: 1.3 µM | 
O=C(Nc1ccccc1C(F)(F)F)NC1(C(=O)N2CCOCC2)CCCCC1 | inconclusive: 25.9 µM [inhibitor, single point] | 
CCc1ccccc1NC(=O)c1ccc2c(c1)CCN2S(C)(=O)=O | inactive and inconclusive: 16.4 µM [inhibitor, partial curve] | 
CC(=O)c1cnc2cc(-c3ccc(Cl)cc3)nn2c1C | inconclusive: 16.4 µM [inhibitor, partial curve, poor fit] | 
O=C(Cn1ncc2c3ccccc3n(Cc3ccccc3)c2c1=O)NCCN1CCOCC1 | inactive | 
O=C(NCC(=O)N1CCN(c2ccccc2F)CC1)c1cccs1 | inactive | 
NC(N)=Nc1nc(CSCC/C(N)=N\S(N)(=O)=O)cs1 | inactive | 
Cc1cccc(CSCCNC(=O)c2ccc(CN3CCOCC3)cc2)c1 | inconclusive: 25.9 µM [inhibitor, partial curve] | 
COc1cc(NC(=O)c2sc3nc4n(c(=O)c3c2C)CCCCC4)cc(OC)c1OC | inconclusive: 18.4 µM [inhibitor, single point] | 
COc1ccccc1N1CCN(C(=O)CCCC2=NS(=O)(=O)c3ccccc3N2)CC1 |  | inconclusive: -34.4% [inhibitor]
O=c1c2ccc([N+](=O)[O-])cc2ncn1Cc1ccccc1C(F)(F)F | inconclusive: 8.2 µM [inhibitor, partial curve] | 
O=C(NCc1ccco1)c1cccc(-c2ccc3nncn3c2)c1 | inactive | 
O=C(NC1CCCC1)c1cccc(S(=O)(=O)N2CCCC2)c1 | inactive | 
CCCCCCCCN1C(=O)[C@H](CC(=O)N2CCSCC2)C[C@@]2(C(=O)OCC)CCCC=C12 | active: 20.6 µM | 
Cc1noc(C)c1C(=O)N1CCCC(C(=O)c2cccc(C(F)(F)F)c2)C1 (stereo unspecified) | inactive | 

Structure (SMILES) | Potency | activity change, negative = growth inhibition
COc1ccc(CNC(=O)c2nc(Cn3nc(C)c(Br)c3C)no2)cc1OC | inconclusive: 29.1 µM [inhibitor, single point] | 
CCC(C)(C)n1nnnc1C(c1ccccn1)N1CCN(c2cccc(OC)c2)CC1 (stereo unspecified) | inactive | 
COc1ccc(Cc2nc3ccc(C(=O)NCc4ccc(OC)cc4OC)cc3o2)cc1 | inconclusive: 8.2 µM [inhibitor, partial curve] | 
CN(C)S(=O)(=O)c1ccc(N2CCCC2)c(C(=O)NCc2ccccc2)c1 | inactive | 
Cc1nc(SCC(=O)CC(=O)OC(C)C)c(C#N)c(C)c1C | inconclusive: 29.1 µM [inhibitor, single point] | 
Oc1ccc(/C=N/N2CCN(C3c4ccccc4-c4ccccc43)CC2)c(O)c1 |  | inconclusive: -32.3% [inhibitor]
COc1cccc2c(=O)cc(C)n(CC(=O)Nc3ccc(Br)cc3)c12 | inconclusive: 20.6 µM [inhibitor, partial curve] | 
CCN(C(=O)c1cc2cc3ccc(OC)cc3nc2o1)c1cccc(C)c1 | active: 16.4 µM | 
Cc1cc(C)cc(NC(=S)NCc2cccs2)c1 | inconclusive: 18.4 µM [inhibitor, single point] | 
CCN(C[C@H]1N[C@@](Cc2ccccc2)(C(=O)OC)[C@H]2C(=O)N(Cc3ccccc3)C(=O)[C@@H]12)C(=O)Nc1ccc(C(F)(F)F)cc1 | active: 3.66 µM | 
COc1ccc(N2CCN(S(=O)(=O)c3c(C)[nH]c(=O)[nH]c3=O)CC2)cc1 | inactive | 
COc1ccc2[nH]cc(CCNc3ncncc3-c3ccccc3C(F)(F)F)c2c1 | inconclusive: 29.1 µM [inhibitor, single point] | 
COc1cccc(Cn2c3ccc(NC(=O)CC(C)C(F)(F)F)cc3c(=O)n2C)c1 (stereo unspecified) | inconclusive: 25.9 µM [inhibitor, single point] | 
C=Cn1ccnc1P(=S)(c1ccc2c(c1)c1ccccc1n2CC)c1nccn1C=C | inconclusive: 25.9 µM [inhibitor, single point] | 
CC1=C(C)CC(C(=O)NNC(=O)c2csc3c2CCC(C(C)(C)C)C3)C(C(=O)O)C1 (stereo unspecified) | inactive | 
O=S(=O)(NC1CC1)c1ccc(S(=O)(=O)N2CCCc3ccccc32)cc1 | inconclusive: 14.6 µM [inhibitor, partial curve] | 
CCN(CC(=O)Nc1ccccc1-c1ccccc1)Cc1nc2ccccc2c(=O)[nH]1 | active: 4.61 µM | 
CCC1Nc2ncnc(N3CCN(c4ccccc4)CC3)c2N(Cc2ccc(OC)cc2)C1=O (stereo unspecified) | inconclusive: 18.4 µM [inhibitor, single point] | 
COc1ccc(S(=O)(=O)N2CCN(C/C=C/c3ccccc3)CC2)cc1NC(C)=O | inactive | 
Cc1ccc(/C=C/S(=O)(=O)NCC(=O)O)cc1 | inactive | 
CCOC(=O)C1CCN(C(=O)c2ccc(CNS(=O)(=O)c3ccc(OC)cc3)cc2)CC1 | inactive | 
CCC(=O)Nc1ccc2c(c1)nc1n2CCN(C2CCCCC2)C1 | inconclusive: 14.6 µM [inhibitor, single point] | 
CCOC(=O)c1c(C)[nH]c(C)c1C(=O)CSc1nnc(-c2ccc(OC(F)F)cc2)o1 | active: 11.6 µM | 

Source: PubChem BioAssay AID686978 (National Center for Advancing Translational Sciences (NCATS), 2013)
